Measurements as given in patent US9340551B2, “Inhibitors of bacterial type III secretion system” (MICROBIOTIX, INC., priority 2011, dated 2016).

System: T3SS-mediated translocation (ExoU intoxication of CHO cells)
Assay: Inhibition of P. aeruginosa ExoU-dependent CHO cell killing (LDH release)
Details: FIG. 1; rescue of CHO cells from T3SS-mediated ExoU cytotoxicity

CCC(Oc1ccc(Cl)cc1Cl)C(=O)NCc1ccc2c(c1)OCO2 (stereo not shown) [MBX-2081]
increase in potency compared to MBX-1641: 3-4 fold
